Data from PubChem BioAssay AID624417 (National Center for Advancing Translational Sciences (NCATS), 2012).
Out of some 410,000 compounds screened, about 6,400 (1.6%) were called active. Inconclusive means that the source gave no clear call. Such entries were picked first, then a sample of the others. The call rests on the fitted dose curve; in most records, active means well fitted inhibition curve with a large enough effect; inconclusive means small, poorly fitted or top-dose-only effect; inactive means no such curve, though single readings can be large or run the other way. Potencies of inconclusive entries are left out as doubtful fits.

Biological target: Glucagon-like peptide 1 receptor (Homo sapiens) (UniProt P43220)
Test: qHTS of GLP-1 Receptor Inverse Agonists (Inhibition Mode); further: nearly all actives have a fitted effect of over 55% in size
Conditions: HEK293 GLP-1R CRE-luciferase, luminescence, 24 h, GLP-1R form is constitutively active; series mostly up to 38.3 µM
How it was run: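 Inverse agonists were sought by their lowering of basal cAMP reporter luciferase output in HEK293 cells stably carrying constitutively active human GLP-1R, after 24 h compound treatment.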
Potency means the concentration at half of the fitted maximal effect; tags describe the fitted curve by direction and shape.

Chain of UniProt P43220 (P43220 whole entry, looked up): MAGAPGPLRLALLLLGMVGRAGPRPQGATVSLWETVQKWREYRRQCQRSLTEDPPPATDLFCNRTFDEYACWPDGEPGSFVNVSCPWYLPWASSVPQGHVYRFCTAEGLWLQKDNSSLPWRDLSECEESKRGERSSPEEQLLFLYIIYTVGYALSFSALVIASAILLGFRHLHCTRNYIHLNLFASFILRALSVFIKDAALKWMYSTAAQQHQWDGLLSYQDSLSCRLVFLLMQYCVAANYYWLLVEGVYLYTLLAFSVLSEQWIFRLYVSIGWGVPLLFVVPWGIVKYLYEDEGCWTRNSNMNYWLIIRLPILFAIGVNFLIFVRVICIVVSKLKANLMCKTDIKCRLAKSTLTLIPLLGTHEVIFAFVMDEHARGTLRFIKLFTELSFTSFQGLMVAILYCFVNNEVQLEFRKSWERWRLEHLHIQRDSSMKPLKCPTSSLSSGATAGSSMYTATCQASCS

Row | Structure (SMILES) | Potency
1 | CCN(C(=O)CSc1nc2ccccc2nc1Cc1ccc(F)cc1)c1cccc(C)c1 | inactive
2 | CC(C(=O)Nc1ccc2c(c1)OCO2)N(C)CC(=O)Nc1ccc(Cl)cc1 (centres undefined) | inconclusive [inhibitor, partial curve, poor fit]
3 | CN(Cc1nc(-c2ccc(Cl)cc2)no1)C(=O)CCN1C(=O)[C@H]2CC=CC[C@H]2C1=O | active: 2 µM
4 | O=[N+]([O-])c1cc(S(=O)(=O)Nc2ccccc2)ccc1Nc1ccccc1 | inconclusive [inhibitor, single point]
5 | CCCn1c(=O)n(C)c(=O)c2c(SCC(=O)NCC(c3ccccc3)N(C)C)nc(CC(C)C)nc21 (centres undefined) | inconclusive [inhibitor, full curve, poor fit]
6 | CC(C)(C)NC(=O)CSc1ncnc2c1cnn2-c1ccccc1 | inconclusive [inhibitor, partial curve, poor fit]
7 | O=C(NC1CCCCC1)C(c1ccco1)N(C(=O)c1csnn1)c1cccc(F)c1 (centres undefined) | inconclusive [inhibitor, partial curve]
8 | CCCCNC(=O)C1(C)CCCCN1Cc1ccc(OCc2ccccc2)cc1 (centres undefined) | inconclusive [inhibitor, partial curve, poor fit]
9 | O=C1Nc2ccc(Br)cc2/C1=C/C1CC=CCC1 (centres undefined) | active: 4.47 µM
10 | CC(C)(C)OC(=O)N1CCC(CC2CC(c3ccccc3)=NO2)(C(=O)NCc2ccccc2)CC1 (centres undefined) | inconclusive [inhibitor, single point]
11 | COc1ccc2nc(C(c3ccc(C)cc3)n3c(-c4ccccc4Br)nc4ccccc43)[nH]c2c1 (centres undefined) | inconclusive [inhibitor, single point]
12 | C=CCOc1ccccc1CN1CCC(Oc2cc(C(=O)NC3CC3)ccc2OC)CC1 | inconclusive [inhibitor, single point]
13 | CSCc1c(C(=O)NC2CCCc3ccccc32)oc2ccccc12 (centres undefined) | inconclusive [inhibitor, partial curve, poor fit]
14 | Cc1c(Cl)cccc1NC(=S)NCc1ccc(F)cc1 | inconclusive [inhibitor, single point]
15 | CCOc1ccc(C(=O)NC(C)CCc2ccccc2)cc1 (centres undefined) | inconclusive [inhibitor, single point]
16 | CC(C)CN(C(=O)Cn1nnc(-c2ccc(F)cc2)n1)C1CCS(=O)(=O)C1 (centres undefined) | inconclusive [inhibitor, single point]
17 | CCOC(=O)c1sc(=S)n(C)c1NC(=O)c1ccc(C(C)(C)C)cc1 | inconclusive [inhibitor, partial curve, poor fit]
18 | Cc1cccc(-n2nnnc2SC(C)C(=O)NCCC2=CCCCC2)c1 (centres undefined) | inconclusive [inhibitor, partial curve, poor fit]
19 | CCC(C(=O)Nc1ccc(C)c(Cl)c1)n1c(=O)c(-c2ccccc2NC(C)=O)nc2ccccc21 (centres undefined) | inconclusive [inhibitor, partial curve, poor fit]
20 | c1cnc2c(C3NCCc4c3[nH]c3ccccc43)cccc2c1 (centres undefined) | inconclusive [inhibitor, single point]

Row | Structure (SMILES) | Potency
21 | O=[N+]([O-])c1ccc(N/N=C/c2ccccc2)c(F)c1 | inconclusive [inhibitor, single point]
22 | CNc1cc(-c2ccc(CC#N)cc2)ncn1 | inconclusive [inhibitor, partial curve, poor fit]
23 | O=C1[C@@H](Oc2ccccc2)[C@@H](c2cccnc2)N1c1ccccc1 | inconclusive [inhibitor, partial curve]
24 | CC(Oc1ccc(F)cc1)C(=O)Nc1cc(S(=O)(=O)N2CCCCC2)ccc1N1CCOCC1 (centres undefined) | inconclusive [inhibitor, single point]
25 | COc1ccccc1CNc1nc(S(=O)(=O)c2ccccc2)c(Cl)s1 | inconclusive [inhibitor, partial curve, poor fit]
26 | CCc1ccc(N/C(SCc2cccc(F)c2)=C(/C#N)C(=O)NCc2ccco2)cc1 | inconclusive [inhibitor, partial curve, poor fit]
27 | Oc1cccc(/C=N\Nc2nncc(-c3ccccc3)n2)c1 | inconclusive [inhibitor, single point]
28 | Cc1ccc2cc(CN(C(=O)c3ccco3)c3ccccc3C)c(=O)[nH]c2c1 | inconclusive [inhibitor, single point]
29 | CC(C)(C)c1cc(S(=O)(=O)CCc2ccccn2)cc(C(C)(C)C)c1F | inconclusive [inhibitor, single point]
30 | CCc1ccc(NC(=O)C(Cc2ccccc2)NS(=O)(=O)c2ccc3c(c2)c(=O)n(C)c(=O)n3C)cc1 (centres undefined) | inactive
31 | COc1ccccc1C(CCNS(=O)(=O)c1ccc(C)cc1)c1ccco1 (centres undefined) | inconclusive [inhibitor, partial curve, poor fit]
32 | O=C(CCN1CCC(c2ccccc2)C1)c1ccccc1 (centres undefined) | inactive
33 | C(=N\Nc1nc2ccccc2[nH]1)/c1ccc2ncccc2c1 | inconclusive [inhibitor, full curve, poor fit]
34 | Cc1ccccc1NC(=O)C(C)Sc1nnc(CN2CCCC2)n1Cc1ccccc1 (centres undefined) | inconclusive [inhibitor, single point]
35 | CCn1c(SCC(=O)Nc2ccc3c(c2)c2ccccc2n3CC)nnc1-c1ccco1 | inconclusive [inhibitor, single point]
36 | CCN(CC)CCNC(=O)c1sc2nc(-c3ccccc3)cn2c1C | inconclusive [inhibitor, single point]
37 | CCC(Sc1nnc(-c2ccc(OC)c(OC)c2)c(-c2ccc(OC)c(OC)c2)n1)C(=O)NC1CCCC1 (centres undefined) | inactive
38 | CN(CCc1cn[nH]c1)Cc1nc(C(c2ccccc2)c2ccccc2)no1 | inconclusive [inhibitor, single point]
39 | CC(C)c1ccccc1NC(=S)N1CCN(Cc2ccc3c(c2)OCO3)CC1 | inconclusive [inhibitor, full curve, poor fit]
